The source of these data is US20130171174A1 (INDUSTRIAL TECHNOLOGY RESEARCH INSTITUTE, published 2013).

By Kd is commonly meant a measure of binding affinity in units of concentration. Higher therefore signals a looser complex.

In the assay the target is T1, human epidermal growth factor receptor (EGFR) on A431 cells (human, UniProt P00533).
T1 construct: whole, on cells; The target is presented on fixed A431 cells
The assay can be described thus: ELISA on fixed A431 cells, anti-human Fc-HRP detection, SigmaPlot fit. As to the method: A431 cells in a concentration of 4×10⁵ cell/ml were seeded in Corning CellBIND 96-well plate for 16-24 h before assay. After PBS wash, the A431 cells were fixed with BD CytoFix fixation buffer for 15-20 min at room temperature. After fixation and PBS wash procedure, the A431 cells were blocked with StartingBlock blocking buffer for 30 min at 37° C. Plates were washed three times with PBST wash buffer and incubated with the indicated concentrations of dAb-D2-hFc and VH-dAb-D2×4-Ig in 50 ul StartingBlock blocking buffer on ice for 1.5 h. Wells were washed three times with PBST wash buffer. After washing, the plate was incubated with HRP-conjugated anti-human Fc antibody diluted 1:10,000 in StartingBlock blocking buffer on ice for 1 hour. Plates were washed and incubated with TMB. Absorbance at 450 nm was read on a microplate reader.

B1: dAb-D2-hFc fusion protein (Fc fusion)
chain: MAQVQLLESGGGLVQPGGSLRLSCAASGYRFNSEAMGWVRQAPGKGLEWVSSINMRGGSTYYADSVKGRFTISRDNSKNTLYLQMNSLRAEDTAVYYCATVPRSMWWAGLTAKPIRYWGQGTLVTVSS[in this place human IgG1 Fc with C220G (EU numbers)]
notes: Dimeric, bivalent form made in CHO cells and purified on protein A, about 80 kDa; No linker between dAb-D2 and Fc is described; also called recombinant dAb-D2-hFc; bivalent antibody
For the molecule B1, the Kd was ~0.052 µM.
